The source gives no read counts; variants with many changes may rest on few reads.
B1: LINE1-full (parent)
chain: UACGUAGGUGGUUUUCCCCUGAUAGUGCUAAGGGGGCCUGGAAGUUUGGACUGGGCAGAGCUCAACACAGCGUGGCAAAGUGGCUGUGGCUAGACUGCCUCUCUGGAUUCCUCGUCACUCAGCAGGGCAUCUCUGAGAGAAAUGCC

Variants of: B1
Experiment: self-cleavage, relative activity (ratio to wild type); higher = more cleavage; in vitro, sequencing; the parent is a self-cleaving ribozyme

Row | Variant | self-cleavage
1 | UACGUAGGUGGUUUUCCCCUAAUAGUGCUGAGGGGGCCUGGAAGUUUGGACUGGGCAGAGCUCAACACAGCGUGGCAAUGUGGCUGUGGCUAGACUGCCUCUCUGGAUUCCUCGUCACUCAGCAGGGCAUCUCUGAGAGAAAUGCC [G21A A30G A79U] | 1.58
2 | UACGUAGGUGGUUCUCCCCUGAUAGUGCUAAGGGGGCCUGGAAGUUUAGACUGGGCAGAGCUCAACACAGCGUGGCAAAGUGGCUGUGGCUGGACUGCCUCUCUGGGUUCCUCGUCACCCAGCAGGGCAUCUCUGAGAGAAAUGCC [U14C G48A A92G A107G U119C] | 0
3 | UACGUAGGUGGUUUUCCCCUGAUAGUGCUAUGGGGGCCUGGAGGUUGGGACUGGGCAGAGCUCAACACAGCGUGGCAAAGUGGCUGUGGCUAGACUGCCUCUCUGGAUUCCUCGUCACUCAGCAGGGCAUCUCUGAGAGAAAUGCC [A31U A43G U47G] | 1.2
4 | UACGUAGGUGGUUUUCCCCUGAUAGUGCUAAGGGGGCCUGGAAGUUUGGACUGGGUAGAGCUCAACACAGCGUGGCAAAGUGGCUGUGGCUAGGCUGCCUCUCUGGAUUCCUCGUCGCUCAGCAGGGCAUCUCUGAGUGAAAUGCC [C56U A94G A117G A138U] | 0.09
5 | UACGUAGGUGGUUUUCCCCUGAUAGUGCUAAGGGGGCCUGGAGGUUUGGACUGGGCAGAGCUCAACUCAGCGUGGCGAAGUGGCUGUGGCUAGACUGCCUCUCUGGAUUCCUCGUCACUCAGCAGGGCACCUCUGAGAGAAAUGCC [A43G A67U A77G U130C] | 0
6 | UACGUAGGUGGUUUUCCCCUGAUAGUGCUAAGGGGGCCUGGAAGUUUGGACUGGGCAGUGCUCAACACAGCGUGGCAAAGUGGCUGUUGCUAGACUGCCUCUCUGGAUUCCUCGUUACUCAGCAGGGCAUCUCUGAGAGAAAUGCC [A59U G88U C116U] | 0.04
7 | UACGUUGGUGGUUUUCCCCUGAUAGUGCUAAGGGGGCCUGGAAGUUUGGACUGGGCAGAGCUCAACACAGCGUGACAAAGUGGCUGUGGCUGGACUGCCUCUCUGGAUUCCUCGUCACUCAGCAGGGCAACUCUGAGAGAAAUGCC [A6U G75A A92G U130A] | 0.06
8 | UACGUAGGUGGUUUUCCCCUGAUAGCGCUCAGGGGGCCUGGAAGUUUGGACUGGGCAGAGCUCGACACAGCGUGGCAAAGUGGCUGUGGCUAGACUGCCUCUCUGGAUUCCUCGUCACUCAGCAGGGCAUCUCUGAGAGAAAUGCC [U26C A30C A64G] | 0
9 | UACGUGGGUGGUUUUCCCCUGAUUGUGCUAAGGGGGCCUGGGAGUUUGGACUGGGCAGAGCUCAACACAGCGUGGCAAAGUGGCUGUGGCUAGACUGCCUCUCUGGAUUCCUCGUCACUCAGCAGGGCAUCUCUGAGAGAAAUGCC [A6G A24U A42G] | 0.58
10 | UACGUAGGUGGUUUUCCCCUGAUAGUGCUAAUGGGGCCUGGAAGUUUGGACUGGGCAGAGCUCAACACAGCGUGGCAAAGUGGCUGUGGCUAGACUGCCUCUCCGGAUUCCUCGUCACUCAGCAGGGCAUCCCUGAGAGAAAUGCC [G32U U104C U132C] | 2.45
11 | UACGUAGGUGGGUUUCCCCUGAUAGUGCUAAGGGGGCCUGGAAGUUUGGACUGGGUAGGGCUCAACACAGCGCGGCAAAGUGGCUGUGGCUAGACUGCCUCUCUGGAUUCCUCGUCACUCAGCAGGGCAUCUCUGAGAGAAAUGCC [U12G C56U A59G U73C] | 0.27
12 | CACGUAGGUGGUUUUCCCCUGAUAGUGCUAAGGGGGCCUGGAAGUUUGGACAGGGCAGAGCUCGACACUGCGUGGCAAAGUGGCUGUGGCUAGACUGCCUCUCUGGAUUCCUCGUCACUCAGCAGGGCAUCUCUGAGAGAAAUGCC [U1C U52A A64G A69U] | 0.1
13 | UACGUAGGUGGUUAUCCCCUGAUAGUGCUAAGGGGGCCUGGAAGUUUGGACUGGGCAGAGCUCAACACAGCGUGGCAAGGUGGCUGUGGCUAGACUGCCUCUCUGGAUUCCUCGUCACUCAGCAGGGCACCUCUGAGAGAAAUGCC [U14A A79G U130C] | 1.28
14 | UACGUAGGUGGUUUUCCCCAGAUGGUGCUAAGGGGGCCUGGAAGUUUGGACUGGGCAGAGCUCAACACAGCGUGGCAAAGUGGCUGUGGCUAGACUGCCUCUCUGGAUUCCUCGUCACUCAGCAGGGCCUCUCUGAGAGAAAUGCC [U20A A24G A129C] | 1.91
15 | UACGUAGGUGGUUUUCCCCUGAUAGUGCUAAGGGGGCCUGGAGGUUUGGACUGGGCAGAGCUCAACUCAGCGUGGCAAAGUGGCUGUGGCUAGACUGCCCCUCUGGAUUCCUCGUCACUCAGCAGGGCAUCUCUGAGAGAAAUGCC [A43G A67U U100C] | 0.12
16 | UACGUAGGUGGUUUUCCCCUGAUAGUGCUAGGGGGGCCUAGAAGUUUGGACUGGGCAGAGCUCAACACAGCGUGGCAAAGUGGCUGUGGCUAGACUGCCUCUCUGGAUUCCUCGUCACUCAGCAGGGCAUCUCUGAGAGAAACGCC [A31G G40A U143C] | 0.92
17 | UACGUAGGUGGUCUUCCCCUGAUAGUGCUAAGGGGGCCUGGAAGUUUGGUCUGGGCAGAGCUCAACACAGCGUGGCAAAGUGGCUGUGGCUAGACUGCCUCUCUGGAUUUCUCGUCACUCAGCGGGGUAUCUCUGAGAGAAAUGCC [U13C A50U C110U A124G C128U] | 1.51
18 | UACGUAGGUGGUUUUCCCCUGAUAGUGCUAACGGGGCCUGGUAGUUUGGACUGGGCAGAGCUCAACACAGCAUGGCAAAGUGGCCGUGGCUAGACUGCCUCUCUGGAUUCCUCGUCACUCAGCAGGGCAUCUCUGAGAGAAAUGCC [G32C A42U G72A U85C] | 0.06
19 | UACGUAGGUGGUUUUCCCCUGAUAGUGCUAUGGGGGCCUGGAAGUUUGGACUGGGCAGAGCUCAACACAGCGUGGCGAAGUGGCUGUGGCUAGACUGCUUCUCUGGAUUCCUCGUCACUCAGCAGGGCAUCUCUGAGGGAAAUGCC [A31U A77G C99U A138G] | 1.58
20 | UACGUAGGUGGUUUUCCCUUGAUAGUGCUAAGGGGGCCUGGAAGUUUGAACUGGGCAGAGCUCAACACAGCGUGGCAAGGUGGCUGUGGCUAGACUGCCUCUCUGGAUCCCUCAUCACUCAGCUGGGCAUCUCUGAGAGAAAUGCC [C19U G49A A79G U109C G114A A124U] | 0.72

Source: the RNAGym collection of RNA variant scans (doi:10.7554/elife.90254)
